Measurements from article PMC3292316 (Diabetes, 2011).

Target: GST-fused PPP1R3G (mouse, UniProt Q9CW07)
Experiment: pull-down

B1: His-tagged PP1c (catalytic subunit of PP1, α isoform) (enzyme)
chain: not shown
binding result: binds
